In PubChem BioAssay AID1346428 (National Center for Advancing Translational Sciences (NCATS), 2018) one finds activation data, which are given here for 83 compounds.

Each structure is given as a SMILES string. Where “and” joins values, the source holds several entries; their conditions need not be identical. Equal values may be shown once. Among all 48,000 compounds or so, about 1,200 (2.5%) were called active. Another 2% or so got no clear call; they are omitted.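 How the source made its calls: active means activation of at least 60% and not above a set upper limit (about 1 call in 100 departs from these limits); inconclusive means activation of 40% to 60%, or above that upper limit; inactive means activation under 40%.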 Some of the results follow.

The target in this assay is Probable G-protein coupled receptor 32 (Homo sapiens) (UniProt O75388). Briefly: qHTS for Agonists of Human Resolvin D1 Receptor DRV1. Further: 0% is about no effect. Particulars: CHO-K1 GPR32 beta-arrestin PathHunter luminescence, 90 min; at 76.9 µM; stronger effect = higher value; zero percent set by DMSO-only wells. In outline: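 Step 1: seed CHO-K1 GPR32 beta-arrestin cells, 2,500/well, overnight at 37 °C. Step 2: add compounds, 90 min at 37 °C. Step 3: detection reagent, 1 h ambient, then luminescence.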
Chain of UniProt O75388 (O75388 whole entry, looked up): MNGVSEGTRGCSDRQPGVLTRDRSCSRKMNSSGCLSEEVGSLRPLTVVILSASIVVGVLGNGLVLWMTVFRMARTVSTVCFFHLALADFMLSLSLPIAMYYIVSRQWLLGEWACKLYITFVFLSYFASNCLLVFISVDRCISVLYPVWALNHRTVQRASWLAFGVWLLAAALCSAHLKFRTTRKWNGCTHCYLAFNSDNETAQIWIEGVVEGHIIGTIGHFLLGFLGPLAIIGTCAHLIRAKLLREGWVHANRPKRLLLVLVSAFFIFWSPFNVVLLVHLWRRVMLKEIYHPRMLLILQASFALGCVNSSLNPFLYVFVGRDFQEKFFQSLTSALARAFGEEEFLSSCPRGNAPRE
As for `CCn1c(=O)n(CC)c2cc(N3CCCC3)c(NC(=O)Nc3cc(C)cc(C)c3)cc21`, the activation was inactive: -26.3%. Consider `Cc1ccc(CNC(=O)c2nn(C)c3c2CSc2ccc(C)cc2-3)cc1`, for which the activation is inactive: -5.56%. `COC(=O)c1ccccc1NC(=O)c1ccc(=O)n(Cc2cccc(C)c2)c1`: the activation was inactive: -1.29%. With `Cc1ccc(CCNC(=O)CSCc2nc(-c3ccc(C)cc3)oc2C)cc1` the figure was inactive: 22%; with `N#Cc1cccc(NC(=O)C2CCN(c3nc(-c4ccc(Cl)cc4)no3)CC2)c1`, inactive: 18.1%; with `COc1cc(-c2nc(C(N)=O)c3c(n2)n(-c2cccc(C)c2)c(=O)n3C)cc(OC)c1OC`, inactive: -1.79%. With `CCn1c(CN2CCCCC2)nc2cc(NC(=O)c3cccc([N+](=O)[O-])c3)ccc21` the figure was inactive: -8.64%. Consider `Cc1c(C(=O)Nc2cccc(-c3nc4ccccc4s3)c2)oc2ccc(F)cc12`, for which the activation is inactive: 6.23%.

For `CC(C)c1ccc(NC(=O)Cn2c3ncccc3c(=O)n2-c2ccccc2)cc1`, the activation was inactive: 3.74%. For `CCOc1ccc(-c2nnc(SCC(=O)Nc3cc(C)ccc3OC)o2)cc1` the value was inactive: 30%; for `CCOC(=O)c1c(NC(=O)c2ccc(S(=O)(=O)N(CC)CC)cc2)sc2c1CCCCC2`, inactive: -14.5%. Take `CCc1nn(CC(=O)NCCOC)c(=O)c2cc3cc(F)ccc3n12`: the activation was inactive: -1.26%. With `CCN(CC)C(=O)CSc1nc2cc3c(cc2c(=O)n1CCCC(=O)NCc1ccc(OC)cc1)OCO3` the figure was inactive: -10.9%; with `Cc1ccc(CCNC(=O)CN(c2ccc(C(C)C)cc2)S(=O)(=O)c2c(C)nn(C)c2C)cc1`, inactive: -16.9%. For the compound `CN(C)c1ccc(C(CNS(=O)(=O)c2ccc(F)cc2F)N2CCOCC2)cc1` (stereo not drawn), the activation was inactive: -23.9%. In the case of `CCc1ccc(CN(Cc2cn[nH]c2-c2ccc(OC)cc2)C(=O)Nc2ccc(Br)cc2)cc1`, the activation was inactive: 1.75%. For `CCn1c(SCC(=O)Nc2c(C)cccc2C)nnc1-c1nonc1NC(C)=O` the value was inactive: -32.8%; for `O=C(NCCC1=CCCCC1)c1ccc2c(c1)N(Cc1ccccc1)C(=O)c1ccccc1S2=O` (stereo not drawn), inactive: -0.22%; for `Cc1ccc(C(=O)N2CCCCC2CCN2CCCCC2)cc1` (stereo not drawn), inactive: -3.53%. For `COc1ccc(-c2csc(-c3c(N)c(C(=O)c4ccccc4)n4ccccc34)n2)cc1OC` the value was inactive: -5.33%; for `Cc1ccc(O)cc1`, inactive: -2.27%; for `CCS(=O)(=O)c1cccc(C(=O)Nc2ccc(-c3nc4ccccc4s3)c(O)c2)c1`, active: 61%. With `Cc1cccc(NC(=O)Cn2c(=O)c3cccn3c3ccccc32)c1C` the figure was inactive: -5.56%; with `COc1cc(NS(=O)(=O)c2cc(Br)cc3c2N(C(=O)C2CC2)CC3)cc(OC)c1`, inactive: 3.42%; with `CN(C)c1nc(N(C)C)nc(N(C)C)n1`, inactive: -9.63% and inactive: -0.888%. Turning to `COc1ccccc1N1CCN(C(=O)CSc2nc3ccccc3nc2Cc2ccc(C)cc2)CC1`, the activation was inactive: -30.7%. As to `CCN(CCCNC(=O)c1nn(-c2ccc(OC)c(Cl)c2)c(=O)c2c1c1ccccc1n2C)c1ccccc1`, the activation was inactive: -6.77%. With `COc1ccc(OC)c(CNC(=O)CSc2c3c(nc4cc(Cl)ccc24)CCCC3)c1` the figure was inactive: -22.6%; with `Cc1ccc(CN2CCN(C3CCN(S(=O)(=O)N(C)C)CC3)C(=O)C2=O)cc1`, inactive: -26.5%; with `CC1CCN(C(=O)Cn2c(SCC(=O)Nc3ccc(F)cc3)nc3ccccc32)CC1`, inactive: -9.02%. On to `O=C(CSc1nc(-c2ccc(F)cc2)[nH]c1-c1ccc(F)cc1)Nc1ccc2c(c1)OCCO2`, for which the activation is inactive: 9.64%. With `COc1ccc(Cc2nc3ccc(C(=O)NCc4ccccc4Cl)cc3o2)cc1` the figure was inactive: -11.7%; with `Cc1ccc(C)c(N2CCN(C(=O)c3cnn(-c4ccccc4Cl)c3C3CCN(C(=O)OC(C)(C)C)CC3)CC2)c1`, inactive: -3.68%; with `O=C1OC(C(=O)Nc2cc(C(F)(F)F)ccc2Cl)Cc2ccccc21` (stereo not drawn), inactive: 35.5%. With `CCc1ccc(NC(=O)C(CC)n2c(=O)c(-c3ccccc3NC(C)=O)nc3ccccc32)cc1` (stereo not drawn) the figure was inactive: -1.05%; with `O=C(COc1ccc(Cl)cc1)Nc1ccccc1OCc1cc(=O)n2ccccc2n1`, inactive: 7.17%. For `CCOc1ccc(CC(=O)NCC(c2cccs2)S(=O)(=O)c2ccc(F)c(C)c2)cc1` (stereo not drawn) the value was inactive: -5.19%; for `CCN(CC)c1ccc(NC(=O)C2CCN(S(=O)(=O)c3cnc[nH]3)CC2)c(C)c1`, inactive: 7.77%.

`CCOC(=O)c1c(C)c(-c2ccccc2)n(CC(=O)NC(CC)Cc2ccccc2)c1C` (stereo not drawn): the activation is inactive: -2.09%.

For `Cc1ccc(NC(=O)C2CC(=O)N(c3ccc(OC(C)C)cc3)C2)cc1` (stereo not drawn), the activation was inactive: -11.1%.

Turning to `COc1cccc(C(=O)Nc2ccc3oc(-c4cccc5c(Br)cccc45)nc3c2)c1`, the activation was inactive: 16.2%. With `Cc1ccc(Nc2nnc(-c3ccc(C)c(S(N)(=O)=O)c3)c3ccccc23)cc1` the figure was inactive: -14.3%; with `COc1ccccc1N1CCN(C(=O)c2cnn(-c3ccc(F)cc3F)c2C2CCNCC2)CC1`, inactive: 20%.

On to `CCc1ccccc1N(C)C(=O)c1ccc2c(=O)n3c(nc2c1)CCCCC3`, for which the activation was inactive: -12.9%. With `COc1ccc(S(=O)(=O)NCC(c2ccc(N(C)C)cc2)N2CCc3ccccc32)cc1OC` (stereo not drawn) the figure was inactive: -32.9%.

Regarding `CCOC(=O)c1c(NC(=O)c2ccccc2OCC)sc2c1CCC(CC)C2` (stereo not drawn), the activation is inactive: -11.6%.

`COc1ccc(N2CCN(C(=O)CCc3c(C)nc4cc(-c5ccc(OC)cc5OC)nn4c3C)CC2)cc1`: the activation was inactive: -9.11%.

On to `Cc1cccc(OCC(=O)Nc2cccc3cccnc23)c1C`, for which the activation is inactive: -20.1%. Turning to `CCCOc1ccc(C2C(=O)N(C3CCCCCC3)CC(=O)N2CCC)cc1OC` (stereo not drawn), the activation is inactive: -14.6%. Turning to `CN(C)S(=O)(=O)c1ccc(C(=O)NCCSc2c(-c3ccc(Cl)cc3)[nH]c3ccccc23)cc1`, the activation was inactive: -15.7%. With `CC(C)c1ccc(N2C(=O)CSC23C(=O)N(Cc2ccccc2)c2ccccc23)cc1` (stereo not drawn) the figure was inactive: -21.4%; with `Cc1cc(NS(=O)(=O)c2ccc3oc(=O)c4ncn(C)c4c3c2)ccc1Br`, inactive: -7.61%.

For `Cc1ccc(NC(=O)Cn2c(=O)n(Cc3nc(C)no3)c(=O)c3cc4c(cc32)OCO4)cc1`, the activation was inactive: -5.04%.

For `COc1ccc(NC(=O)N2CCN(S(=O)(=O)c3ccc4c(ccn4C)c3)CC2)c(OC)c1`, the activation is inactive: -0.36%. Consider `O=C(/C=C/c1ccccc1Cl)Nc1nc(-c2cccs2)ns1`, for which the activation is inactive: -5.08%.

Turning to `O=C(Cn1cc(SCc2c(F)cccc2Cl)c2ccccc21)N1CCCC1`, the activation was inactive: 10.5%. With `COc1cccc(CNC(=O)C(C)n2c(=O)cc(-c3ccccc3)c3c(C)nn(C)c32)c1` (stereo not drawn) the figure was inactive: -6.39%.

Turning to `Cc1nc2ccn(Cc3ccco3)c(=O)c2cc1C(=O)N1CCN(c2ccc(F)cc2)CC1`, the activation is inactive: -35.6%. For `CN(Cc1ccccc1)C(=O)CSc1nc(-c2ccc(F)cc2)cc(C(F)(F)F)n1` the value was inactive: -4.81%; for `Cc1ccc(/C=C(\C#N)c2nc3ccccc3c(=O)[nH]2)cc1`, inactive: -10.2%.

`CCCC(CCC)C(=O)NC1CC(=O)N(c2ccc3c(c2)OCCO3)C1` (stereo not drawn): the activation is inactive: -3.69%. With `O=C(Nc1nnc(S(=O)(=O)N2CCc3ccccc32)s1)c1cccc(Cl)c1` the figure was inactive: 44.1%; with `CCOc1ccc(CC(=O)Nc2c(C(=O)c3ccccc3)oc3ccc(OC)cc23)cc1OCC`, inactive: -11.6%. Turning to `CCc1ccccc1NC(=O)Cn1c(=O)n(Cc2ccc(OC)cc2)c(=O)c2oc3ccccc3c21`, the activation is inactive: 0.204%. For `COCCOC(=O)c1c(-c2ccccc2)c(-c2ccccc2)nn(C)c1=O` the value was inactive: -13%; for `CCCCOc1ccc(Cn2c(=O)oc3ccc(C)cc32)cc1OC`, inactive: -28%. With `CCc1nnc(NC(=O)c2nc(SCc3ccccc3F)ncc2Cl)s1` the figure was inactive: -8.18%; with `COc1ccc2c(c1)c(=O)c(C(=O)c1ccc(F)cc1)cn2CC(=O)Nc1ccc2c(c1)OCO2`, inactive: -0.605%; with `O=S1(=O)c2ccccc2N(Cc2ccc(Cl)cc2)c2ccccc21`, inactive: -5.1%. On to `CCc1c(C)nc2nncn2c1NCc1ccccc1`, for which the activation was inactive: -22.2%.

For the compound `COc1ccc(S(=O)(=O)N2CCN(c3cccc(C)c3C)CC2)c2ccccc12`, the activation is inactive: -5.92%. As to `O=C(CCCCCn1c(=O)c2sccc2n(Cc2ccc(Cl)cc2)c1=O)NCc1ccc2c(c1)OCO2`, the activation is inactive: -21.5%. Consider `Cc1ccc(S(=O)(=O)N(CC(=O)NCCSc2ccc(Cl)cc2)c2ccccc2C)cc1`, for which the activation was inactive: 21.7%.

For the compound `COc1ccc(Cl)cc1C(=O)Nc1nnc2n1CCS2`, the activation is inactive: 17.5%.

Take `Cc1ccc(NC(=O)C2CCN(c3nnc(C)c4c(C)n(-c5ccccc5)nc34)CC2)c(Cl)c1`: the activation is inactive: -9.01%. As for `Cc1cc(Br)ccc1NC(=O)c1sc2nc3n(c(=O)c2c1C)CCCC3`, the activation was inactive: 0.113%. With `CC(C)CCNC(=O)Cn1c(-c2cccs2)cc2cc(F)ccc21` the figure was inactive: 33%; with `O=C(NCCc1ccc(Cl)cc1)c1ccc2c(c1)N(Cc1ccc(Cl)cc1)C(=O)CS2`, inactive: -1.92%. For `C=Cc1ccc(Cn2c(=O)n(-c3cccc(Cl)c3)c(=O)c3c4c(sc32)CN(C(C)=O)CC4)cc1` the value was inactive: -24.5%; for `CCN(Cc1ccccc1)Cc1c(O)ccc2oc(C)c(C(=O)Nc3ccc(C)cc3C)c12`, inactive: -15.5%. Take `COCCCNC(=O)CCn1c(=O)c2ccccc2n(CC(=O)Nc2cc(Cl)ccc2OC)c1=O`: the activation was inactive: -2.43%. For the compound `CCCCN(CC)c1nc(-c2ccccc2F)nc2ccccc12`, the activation is inactive: -4.77%. As to `Cc1cccc(N2CCn3c2nc2c3c(=O)n(C/C=C/c3ccccc3)c(=O)n2C)c1`, the activation is inactive: -1.71%.
